Entries after “also recorded” stand apart in the source; their conditions may differ. Part of at least one peptide drawing is inferred or uncertain, most often the ends. Bridge positions count the residues as written; N and C are the ends. Ends that are not written are not given here. Peptide text beside a SMILES is read from it.
Assays:
male Long-Evans rats = experiment: Feeding and body mass after single third cerebral ventricle (ICV) injection; type: in vivo, rat; conditions: single 1.0 nmol ICV dose; for Long term feeding response, in words: days after injection; for Initial (24 hour) feeding response, in words: first 24 hours
hMC4R [1] = molecular target: T1, hMC4R (Homo sapiens, UniProt P32245); conditions: cAMP, NDP-MSH stimulated; data adapted from the literature (footnote b); read-out: EC50, MC4R; cited from earlier work
T1 construct: expressed in transfected cells; host or cells: HEK-293

hMC4R [2] = molecular target: T1, hMC4R; conditions: displacement of 125I-NDP-MSH; data adapted from the literature (footnotes a, d); read-out: Ki, MC4R; cited from earlier work
hMC3R = molecular target: T2, hMC3R (Homo sapiens, UniProt P41968); conditions: displacement of 125I-NDP-MSH; data adapted from the literature (footnote a); read-out: Ki, MC3R; cited from earlier work
T2 construct: expressed in transfected cells; host or cells: HEK-293
T2 sequence (P41968 whole entry): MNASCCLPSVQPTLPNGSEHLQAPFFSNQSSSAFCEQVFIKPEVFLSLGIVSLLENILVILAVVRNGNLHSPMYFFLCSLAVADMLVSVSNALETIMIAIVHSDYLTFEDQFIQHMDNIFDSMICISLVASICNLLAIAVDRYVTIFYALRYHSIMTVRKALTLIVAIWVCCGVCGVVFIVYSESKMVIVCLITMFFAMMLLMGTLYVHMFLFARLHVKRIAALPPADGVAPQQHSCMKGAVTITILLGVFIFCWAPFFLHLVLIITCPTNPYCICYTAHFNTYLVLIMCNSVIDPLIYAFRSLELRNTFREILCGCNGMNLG

T1 sequence (P32245 whole entry): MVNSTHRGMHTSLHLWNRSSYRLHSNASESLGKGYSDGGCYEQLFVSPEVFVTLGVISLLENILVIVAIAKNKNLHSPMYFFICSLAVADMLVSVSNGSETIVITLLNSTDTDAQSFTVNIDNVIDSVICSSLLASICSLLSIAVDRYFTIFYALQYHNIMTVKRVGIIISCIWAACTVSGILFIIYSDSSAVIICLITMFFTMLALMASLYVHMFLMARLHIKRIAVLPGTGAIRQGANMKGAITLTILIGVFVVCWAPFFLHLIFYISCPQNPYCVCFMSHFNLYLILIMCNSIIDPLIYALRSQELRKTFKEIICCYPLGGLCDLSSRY

Compound | Long term feeding response, in words (male Long-Evans rats) | Initial (24 hour) feeding response, in words (male Long-Evans rats) | Duration of enhanced feeding after a single dose (male Long-Evans rats) | other results
SSRRCVRLHESCLGQQVPCCDPCATCYCRFFNAFCYCRQLGTAMNPCSQT-NH2 (disulfide 5-20, 12-26, 19-37, 23-47, 28-35 (inferred); C-terminus assumed) [AgRP-2Q] | somewhat more potent than wild type | greatly stimulate feeding | – | –
CC(C)C[C@@H]1NC(=O)[C@@H]2CSSC[C@@H]3NC(=O)[C@H]([C@@H](C)O)NC(=O)[C@H](C)NC(=O)[C@H](C)NC(=O)[C@@H]4CCCN4C(=O)[C@H](CC(=O)O)NC(=O)[C@H](CSSC[C@H](NC(=O)[C@H](CCCNC(=N)N)NC(=O)[C@H](CCCNC(=N)N)NC(=O)[C@H](CO)NC(=O)[C@@H](N)CO)C(=O)N[C@@H](C(C)C)C(=O)N[C@@H](CCCNC(=N)N)C(=O)N[C@@H](CC(C)C)C(=O)N[C@@H](Cc4c[nH]cn4)C(=O)N[C@@H](CCC(=O)O)C(=O)N[C@@H](CO)C(=O)N2)NC(=O)[C@H](CSSC[C@@H](C(=O)N[C@@H](CCCNC(=N)N)C(N)=O)NC(=O)[C@H](Cc2ccc(O)cc2)NC(=O)[C@@H]2CSSC[C@H](NC(=O)[C@H](Cc4ccc(O)cc4)NC3=O)C(=O)N[C@@H](CCCNC(=N)N)C(=O)N[C@@H](Cc3ccccc3)C(=O)N[C@@H](Cc3ccccc3)C(=O)N[C@@H](CC(N)=O)C(=O)N[C@@H](C)C(=O)N[C@@H](Cc3ccccc3)C(=O)N2)NC(=O)[C@@H]2CCCN2C(=O)[C@H](C(C)C)NC(=O)[C@H](CCC(N)=O)NC(=O)[C@H](CCC(N)=O)NC(=O)CNC1=O [AgRP(83-120)] (H-SSRRCVRLHESCLGQQVPCCDPAATCYCRFFNAFCYCR-NH2; disulfide 5-20, 12-26, 19-37, 28-35 (inferred); N-terminus and C-terminus assumed) | – | essentially equipotent to wild type | – | –
CC(=O)N[C@H]1CSSC[C@@H]2NC(=O)[C@@H]3CSSC[C@@H](C(=O)N[C@@H](CCCNC(=N)N)C(N)=O)NC(=O)[C@H](Cc4ccc(O)cc4)NC(=O)[C@@H]4CSSC[C@H](NC(=O)[C@H](Cc5ccc(O)cc5)NC(=O)[C@H](CSSC[C@H](NC(=O)[C@H](CO)NC(=O)[C@H](CCC(=O)O)NC(=O)[C@H](Cc5c[nH]cn5)NC(=O)[C@H](CC(C)C)NC(=O)[C@H](CCCNC(=N)N)NC(=O)[C@H](C(C)C)NC1=O)C(=O)N[C@@H](CC(C)C)C(=O)NCC(=O)N[C@@H](CCC(N)=O)C(=O)N[C@@H](CCC(N)=O)C(=O)N[C@@H](C(C)C)C(=O)N1CCC[C@H]1C(=O)N3)NC(=O)[C@H]([C@@H](C)O)NC(=O)[C@H](C)NC(=O)[C@H](C)NC(=O)[C@@H]1CCCN1C(=O)[C@H](CC(=O)O)NC2=O)C(=O)N[C@@H](CCCNC(=N)N)C(=O)N[C@@H](Cc1ccccc1)C(=O)N[C@@H](Cc1ccccc1)C(=O)N[C@@H](CC(N)=O)C(=O)N[C@@H](C)C(=O)N[C@@H](Cc1ccccc1)C(=O)N4 [AgRP(87-120)] (Ac-CVRLHESCLGQQVPCCDPAATCYCRFFNAFCYCR-NH2; disulfide 1-16, 8-22, 15-33, 24-31 (inferred); C-terminus assumed) | – | – | – | EC50 (hMC4R [1]): 13 ± 3 nM; Ki (hMC4R [2]): 6.1 ± 0.5 nM; Ki (hMC3R): 7.5 ± 0.5 nM
KKRRCVRLHESCLGQQVPCCDPCATCYCRFFNAFCYCRKLKTKMNPCSRT-NH2 (disulfide 5-20, 12-26, 19-37, 23-47, 28-35 (inferred); C-terminus assumed) [AgRP-4K] | – | – | well over a week; also recorded: beyond nine days | Increase in body mass relative to wild type AgRP(83-132) (male Long-Evans rats): nearly double; also recorded: approximately double
SSRRCVRLHESCLGQQVPCCDPCATCYCRFFNAFCYCRKLKTKMNPCSRT-NH2 (disulfide 5-20, 12-26, 19-37, 23-47, 28-35 (inferred); C-terminus assumed) [AgRP-2K] | – | – | out to six or seven days | Increase in food uptake relative to wild type AgRP in the first 24 hours (male Long-Evans rats): ~50%
SSQQCVRLHESCLGQQVPCCDPCATCYCRFFNAFCYCRQLGTAMNPCSQT-NH2 (disulfide 5-20, 12-26, 19-37, 23-47, 28-35 (inferred); C-terminus assumed) [AgRP-4Q] | returns to baseline after the second day | weak 24 hour response | – | Change in body mass five days after injection, in words (male Long-Evans rats; 5-day): slight decrease in body mass

From patent publication US9394343B2, “Appetite stimulating protein” (The Regents of the University of California, priority 2011, dated 2016)
